In all, about 340,000 compounds went through this assay and about 6,900 (2%) were called active. No stated cut-off is given here; in the data, active means inhibition above about 30%; inactive means below that, where a call was filed. This is a selection; strong and weak results do not stand in their true shares. Where no call is shown, the source filed none.
target: D(2) dopamine receptor (Homo sapiens) (UniProt P14416); test: HTS Assay for Allosteric Antagonists of the Human D2 Dopamine Receptor: Primary Screen for Antagonists; conditions: HEK293 TREx D2 cells, calcium flux, dopamine EC80; at 10 µM; stronger effect = higher value; further: 0% is about no effect
Chain of UniProt P14416 (P14416 whole entry, looked up): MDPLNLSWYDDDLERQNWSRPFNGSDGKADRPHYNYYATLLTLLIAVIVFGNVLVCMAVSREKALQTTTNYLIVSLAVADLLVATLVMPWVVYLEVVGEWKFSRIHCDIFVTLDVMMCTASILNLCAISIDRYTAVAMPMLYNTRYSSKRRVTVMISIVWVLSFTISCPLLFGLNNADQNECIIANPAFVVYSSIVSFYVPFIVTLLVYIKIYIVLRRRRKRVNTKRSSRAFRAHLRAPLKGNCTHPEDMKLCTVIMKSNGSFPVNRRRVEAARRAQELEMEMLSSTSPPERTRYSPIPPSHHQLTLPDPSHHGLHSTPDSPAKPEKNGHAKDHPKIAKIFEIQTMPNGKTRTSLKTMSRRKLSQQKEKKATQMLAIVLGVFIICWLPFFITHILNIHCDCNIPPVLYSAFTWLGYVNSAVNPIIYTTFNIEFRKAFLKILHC
Summary of the method: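 In this primary screen, negative modulation is detected by tracking calcium flux after an EC80 dopamine challenge in inducible HEK293 T-REx D2 cells preexposed to test compound for 180 s.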

**Q.** Which inhibition does the source give for `COC(=O)c1ccc(NC(=O)C2CCN(S(=O)(=O)c3ccc4c(c3)CCCN4C(C)=O)CC2)cc1` here?
**A.** 4.19%

**Q.** `COc1cc(NC(=O)CSc2nc3nc(C)c(Cc4ccccc4)c(C)n3n2)cc(OC)c1OC` was tested. Which inhibition did it give?
**A.** -4.87%

**Q.** With `CCc1nnc2n1N(C(C)=O)C(c1ccc(C(C)(C)C)cc1)=C(C(C)=O)S2` as the compound, how does the inhibition read?
**A.** -26.2%

**Q.** How did the inhibition turn out when `Cc1nc(N2CCCC2)ncc1C(=O)NCc1ccccc1Cl` was run?
**A.** -9.98%

**Q.** Which inhibition does the source give for `CCc1ccc(CNC(=O)c2cc3c(s2)-c2ccccc2OC3)cc1` here?
**A.** 28.2%

**Q.** How did the inhibition turn out when `CCOC(=O)c1cc2c(=O)n3ccccc3nc2n(CC2CCCO2)c1=NC(=O)c1cc(C)cc(C)c1` (stereo not given) was run?
**A.** 22.2%

**Q.** `Cc1[nH]c2ccccc2c1C1(O)C(=O)N(Cc2ccc(Cl)cc2)c2ccccc21` (stereo not given) was tested. Which inhibition did it give?
**A.** 3.02%

**Q.** Which inhibition does the source give for `CCc1cccc(C)c1Nc1c(-c2cccc(O)c2)nc2sccn12` here?
**A.** 3.28%

**Q.** `COc1ccc(CC(=O)Nc2sc3c(c2C(=O)Nc2ccc(C)cc2)CCCCC3)cc1` was tested. Which inhibition did it give?
**A.** -1.16%

**Q.** Which inhibition does the source give for `Cc1[nH]c2c(C)cccc2c1CCNC(=O)c1cc2ccccc2oc1=O` here?
**A.** 1.85%

**Q.** How did the inhibition turn out when `Cc1ccc(N(CC(=O)Nc2ccc(OC(F)(F)F)cc2)S(=O)(=O)c2c(C)noc2C)cc1` was run?
**A.** -2.03%

**Q.** With `COc1cccc(N2CCN(C(=O)c3nc(-c4ccc(Cl)cc4)n4c3CCCCC4)CC2)c1` as the compound, how does the inhibition read?
**A.** 3.33%

**Q.** Which inhibition does the source give for `Cc1ccc(O)c(NC(=O)c2nc3nc(C)cc(C(F)F)n3n2)c1` here?
**A.** 1.29%

**Q.** How did the inhibition turn out when `O=c1oc2ccc3ccccc3c2cc1-c1nnc(Nc2cc(C(F)(F)F)ccc2Cl)s1` was run?
**A.** 6.12%

**Q.** Which inhibition does the source give for `CS(=O)(=O)Oc1ccc2c(c1)O/C(=C\C=C\c1ccccc1)C2=O` here?
**A.** active: 37.5%

**Q.** For `Cc1ccc(NC(=O)c2ccc(CN3CC(=O)N4CCCCC4C3=O)cc2)cc1C` (stereo not given), which inhibition is on record?
**A.** 2.86%

**Q.** How did the inhibition turn out when `CCOc1ccc(-n2c(=O)c3sc4ccccc4c3n(Cc3ccc(F)cc3)c2=O)cc1` was run?
**A.** -12.1%

**Q.** How did the inhibition turn out when `CCc1ccccc1NC(=O)C(=O)NCCc1sc(-c2cccc(C)c2)nc1C` was run?
**A.** -10.3%

**Q.** How did the inhibition turn out when `COCCCNc1ncnc2c1nnn2C` was run?
**A.** -11.6%

**Q.** How did the inhibition turn out when `CCn1c(SCC(=O)Nc2ccc(C)c(C)c2)nnc1-c1nonc1NC(C)=O` was run?
**A.** -7.11%

**Q.** How did the inhibition turn out when `CC(C)c1cnc2c(c1SCC(=O)Nc1cccc([N+](=O)[O-])c1)c(=O)n(C)c(=O)n2C` was run?
**A.** 15.8%

**Q.** Which inhibition does the source give for `CCCCC(CC)Cn1c(Oc2ccccc2)nc2c1c(=O)n(C)c(=O)n2C` (stereo not given) here?
**A.** 0.0708%

**Q.** For `Cc1ccc(Cl)cc1N1CCN(S(=O)(=O)c2ccc3c(c2)CC(=O)N3C)CC1`, which inhibition is on record?
**A.** -0.457%

**Q.** How did the inhibition turn out when `COc1cc(-c2nnc(SCC(=O)Nc3cccc(C#N)c3)o2)cc(OC)c1OC` was run?
**A.** 7.95%

**Q.** Which inhibition does the source give for `CCOC(=O)C1CCCN(S(=O)(=O)c2ccc3c(c2)N(C)C(=O)CC(=O)N3C)C1` (stereo not given) here?
**A.** 3.08%

**Q.** With `O=C(Cn1ncc2c3ccccc3n(Cc3ccc(Cl)cc3)c2c1=O)NC1CCCCCC1` as the compound, how does the inhibition read?
**A.** 2.55%

**Q.** Which inhibition does the source give for `CCc1ccc(CNC(=O)c2cnc3sc(N(CC)CC)nn3c2=O)cc1` here?
**A.** 15.8%

**Q.** Which inhibition does the source give for `COCCCNC(=O)Cn1c(=O)n(-c2ccc(Cl)cc2)c(=O)c2c3c(sc21)CCCCC3` here?
**A.** 10.8%

**Q.** Which inhibition does the source give for `CC(C)(C)Nc1c(N)c(=O)oc2ccccc12` here?
**A.** active: 33.7%

**Q.** `COc1ccc(CCNC(=O)CN2C(=O)COc3ccc(S(=O)(=O)N4CCCCCC4)cc32)cc1OC` was tested. Which inhibition did it give?
**A.** 3.83%

**Q.** For `Cc1ccc(OCC(=O)Nc2ccccc2C(=O)OCc2cc(=O)n3c(C)csc3n2)cc1`, which inhibition is on record?
**A.** 13.2%

**Q.** Which inhibition does the source give for `Cc1ccc(-c2nnc3ccccc3c2C(=O)Nc2cccc(C(F)(F)F)c2)cc1` here?
**A.** -8%

**Q.** With `CC1=C(C(=O)Nc2ccc(C)cc2C)C(c2ccc[nH]2)n2ncnc2N1` (stereo not given) as the compound, how does the inhibition read?
**A.** 23.4%

**Q.** How did the inhibition turn out when `CSc1nnc2c(n1)OC(c1cccc(O)c1Cl)Nc1ccccc1-2` (stereo not given) was run?
**A.** 4.74%

**Q.** How did the inhibition turn out when `N#Cc1cc2c(=O)n3ccccc3nc2n(-c2nnc(SCc3ccccc3F)s2)c1=O` was run?
**A.** 2.98%

**Q.** With `CCOC(=O)c1noc2nc(C)n(CC(=O)Nc3ccc(Br)cc3C)c(=O)c12` as the compound, how does the inhibition read?
**A.** 23.3%

**Q.** With `COc1ccc(OC)c(-n2cnc3cc(C(=O)NCCc4ccccc4)ccc32)c1` as the compound, how does the inhibition read?
**A.** 4.83%

**Q.** Which inhibition does the source give for `Cc1ccc(CN(C(=O)c2ccc([N+](=O)[O-])cc2)c2ccccn2)cc1` here?
**A.** 11.9%

**Q.** How did the inhibition turn out when `Cc1cc(Nc2cccc(C(F)(F)F)c2)nc2ccc(NC(=O)c3cncc(Br)c3)cc12` was run?
**A.** -6.38%

**Q.** For `CN(CCC1CCOCC1)C(=O)c1cc(COc2c(F)cccc2F)on1`, which inhibition is on record?
**A.** active: 30.5%

**Q.** How did the inhibition turn out when `O=C(Nc1ccc(Cl)c(C(F)(F)F)c1)c1cc2nc(-c3ccc4c(c3)OCO4)cc(C(F)(F)F)n2n1` was run?
**A.** 5.86%

**Q.** For `CCCn1ccc2c(OCC(=O)Nc3ccc(C(F)(F)F)cc3)cccc2c1=O`, which inhibition is on record?
**A.** 25.7%

**Q.** How did the inhibition turn out when `CCC(O)c1nc2ccccc2n1CCOc1cc(C)cc(C)c1` (stereo not given) was run?
**A.** 3.67%

**Q.** Which inhibition does the source give for `CCOc1ccccc1C(=O)Nc1cc2c(cc1N1CCCCC1)n(C)c(=O)n2C` here?
**A.** -24.6%

**Q.** How did the inhibition turn out when `O=C(Nc1ccccc1F)c1oc2ccccc2c1NC(=O)C12CC3CC(CC(C3)C1)C2` was run?
**A.** 4.81%

**Q.** How did the inhibition turn out when `COc1ccc(NC(=O)CSc2n[nH]c(-c3ccccc3)n2)cc1Cl` was run?
**A.** -2.29%

**Q.** For `N#C/C(=C\c1ccccc1F)c1nc2ccccc2c(=O)[nH]1`, which inhibition is on record?
**A.** 11.1%

**Q.** How did the inhibition turn out when `COc1cccc(C(=O)NC2CC3CCCC(C2)N3Cc2ccc(C)cc2)c1` (stereo not given) was run?
**A.** active: 77.3%

**Q.** `Cc1cc(C)cc(NS(=O)(=O)c2ccc3[nH]cc(C(=O)NCc4ccco4)c(=O)c3c2)c1` was tested. Which inhibition did it give?
**A.** -3.84%

**Q.** `COc1cccc(NC(=O)CCc2nnc3n(CC(C)C)c(=O)c4ccccc4n23)c1` was tested. Which inhibition did it give?
**A.** 6.26%

**Q.** For `CC(=O)c1ccc(NC(=O)CN2C(=O)CCc3cc(S(=O)(=O)N4CCC(C)CC4)ccc32)cc1`, which inhibition is on record?
**A.** 0.924%

**Q.** How did the inhibition turn out when `CCOC(=O)c1ccccc1NC(=O)c1cnn(-c2ccc(OC)cc2)c1C1CCN(C(=O)OC(C)(C)C)CC1` was run?
**A.** 2.87%

**Q.** With `O=C(N/C=N/OCc1ccc(Cl)cc1Cl)NOCc1c(Cl)cccc1Cl` as the compound, how does the inhibition read?
**A.** active: 30.7%

**Q.** For `Cc1ccc2c(c1)c(=O)c1ccccc1n2CCCC(=O)Nc1ccc(Cl)cc1C`, which inhibition is on record?
**A.** 23.7%

**Q.** For `CCOc1ccc(CNC(=O)c2cnc3c(C)cccn3c2=O)cc1`, which inhibition is on record?
**A.** 21.4%

**Q.** How did the inhibition turn out when `CCN(C(=O)CSc1nc2ccccc2n1Cc1ccccc1C#N)c1ccccc1` was run?
**A.** 11.5%

**Q.** Which inhibition does the source give for `Cc1ccc(-c2nc(S(=O)(=O)c3ccc(C)cc3)c(SCC(=O)c3ccccc3)o2)cc1` here?
**A.** -14.1%

**Q.** `Cc1cccc(C)c1NC(=O)Cn1c(=O)n(Cc2ccccc2Cl)c(=O)c2cccnc21` was tested. Which inhibition did it give?
**A.** 21%

**Q.** How did the inhibition turn out when `COc1ccc(-n2nc(C(=O)Nc3ccc(C)cn3)c3c4ccccc4n(C)c3c2=O)cc1Cl` was run?
**A.** -14.6%

**Q.** With `CCOC(=O)c1ccc(NC(=O)CSc2nnc(-c3ccncc3)n2-c2ccccc2)cc1` as the compound, how does the inhibition read?
**A.** -25.2%
